Measured values: the supplement of paper PMC5499739
Over roughly 16,000 sequences, “Z-score” has its median near -0.37; the highest 2% begin near 3.1. The list shows a part of the results.

These sequences were tested on RBM10 RRM1-ZnF-RRM2 (GST-tagged construct) (assay: RNAcompete 7-mer binding Z-score; higher = stronger binding preference).
Method in brief: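 In 1 ml Hepes pH 7.8 buffer with KCl, NaCl, glycerol, DTT, BSA and glutathione Sepharose beads, GST-tagged RBM10 constructs (20 pmol) were incubated for 30 min at 4°C with 1.5 nmol of a designed pool of 241 399 RNAs up to 41 nt. Four 2-min washes at 4°C followed, and bound RNA was detected by microarray hybridisation. Heptamer motif enrichment was expressed as a one-sided Z-score across probes containing each motif.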

Sequence | RNAcompete 7-mer binding Z-score
UGUUCGA | -0.606
GAAUUCA | -0.238
UAGGGAC | 2.24
AGCGCGC | -0.282
GGCUUGG | 0.956
AGCGGGA | 3.24
UAGGAAA | 1.6
GUCAUGG | 0.862
CCAACGA | -0.446
GUUAGCA | 0.232
GGGGUUC | 1.83
UUUUGUA | -0.737
UGUAUGC | -0.22
UCUUCAG | -0.781
GGGUAUU | 1.81
UAACGAG | 0.177
AGGGACC | 0.756
UCUAAAG | -0.544
CUGACGC | -0.748
CCAUCGG | -0.613
UUGAGGC | 0.341
GCUAGGG | 1.94
GAUAUUC | -0.439
CGUAUGA | -0.00877

Sequence | RNAcompete 7-mer binding Z-score
UUCUCGC | -0.737
AAGGCCA | 0.556
GAGGUUG | 1.96
AGUUAGA | 0.286
CGUAAUG | 0.0932
CAAUGGG | 3.4
AGACGCC | -1.1
AUCAUGC | -0.559
AGCGCAA | -0.187
UAUGACU | -0.613
GUACCGC | -0.329
CACCUAU | -0.978
UCAGCUC | -0.865
UCAUCAU | -0.515
UAGACCC | -0.759
AUUAUGG | 0.847
GAUGAGA | 0.789
AACUCCC | -0.919
ACGAUGA | 0.257
UGUAGAA | 0.13
AAGUGGA | 3.2
UCUGCGA | -0.73
CCCAACG | -0.475
GAAUCUU | -0.726

Sequence | RNAcompete 7-mer binding Z-score
ACCGGGG | 1.7
GAAUCAA | 0.0896
UUAAGGU | 0.898
UGUUUUA | -0.588
UCAGAGU | 0.0786
UAGCGCG | 0.13
UCGUCCG | -0.69
GGCAAGC | 0.53
UACGCCG | -0.712
UAUGUCU | -0.668
UACGCAG | -0.187
UUCAGUG | 0.181
CAAGGAA | 1.77
CCCAGUU | -0.748
CUGUGAU | -0.763
CUACAGC | -0.777
GUGCUCU | -0.657
AUGAUCU | -0.675
CACUUAU | -0.897
UUUAAUG | -0.471
GAUCGCU | -0.697
UAUGGCG | 0.716
GGACCAA | 0.793
AGGAAAC | 1.35

Sequence | RNAcompete 7-mer binding Z-score
UAUAUUC | -0.588
AUCGACG | -0.318
CACCUAC | -0.657
AUUAUCU | -0.81
CGGACCA | 0.13
GGGGUGC | 2.58
AAAGGGC | 2.89
GGGAGUA | 2.34
AAACCGG | 0.599
UCUCAUG | -0.741
GAGUUUC | -0.318
AUAUAUA | -0.337
ACAUGGU | 1.07
GACCAAG | -0.0124
UCUAGGC | -0.526
ACUUAUG | -0.686
AUCCUAU | -0.814
CUCAGUG | -0.482
AAGUUUA | -0.479
UCCGUGA | -0.632
UCGAUCC | -0.737
CGCAAGG | 0.341
AUACAUG | 0.403
UUAAAGC | -0.439

Sequence | RNAcompete 7-mer binding Z-score
UAUAUAG | -0.184
GUCCCAC | -0.697
AUUAGAA | -0.0343
UAUAUUA | -0.479
GGACGCG | 1.35
UUCCUAG | -0.737
UAUCCAA | -0.73
GCGGUCA | 0.0313
CGCCGGU | -0.413
UGUUGGA | 0.585
UACCCGC | -0.639
UAGGAAG | 1.94
GGCCAUU | -0.391
GUCCGCA | -0.672
UCUGCUU | -0.89
GGCAGUG | 1.46
CAGAGCA | 0.257
ACCGAGA | -0.278
CAAAGAA | 0.0058
GUUCCAA | -0.351
CGAAUAC | -0.442
CUCUUUG | -0.97
GGAUUCU | -0.191
UUUUUUC | -0.697

Sequence | RNAcompete 7-mer binding Z-score
GACAGGG | 2.93
CAACCUC | -0.792
CAGGGUG | 2.84
UCAUUAC | -0.632
UUCCGUU | -0.581
AUGGACU | 0.745
CCUGUGU | -0.77
CGCCAAA | -0.752
AGUUAAC | -0.125
GCCCGCG | -0.453
GUCAACA | -0.0343
UUUGGAU | -0.125
AGGCCAG | -0.0816
UCUAACA | -0.602
AACUCGA | -0.5
CUUACGC | -0.927
GUUCCGU | -0.373
GAUUUAU | -0.424
CAUAAGA | -0.358
UUGUUGA | -0.278
CAAUGCC | -0.672
GAUGGUC | 0.527
CGCCCUA | -0.766
UGGGUAG | 3.34

Sequence | RNAcompete 7-mer binding Z-score
GGAAUGA | 2.1
ACAUCGC | -0.708
UGCAUUA | -0.202
UGCGAAU | -0.18
UCGCGGA | -0.00877
GGGCUCU | -0.00148
CUCGGCG | -0.125
GGCAUAG | 1.23
GAGGGAC | 2.02
UGGUUUG | 0.993
UCGUUAG | -0.129
UACCAGA | -0.493
AAUACGA | 0.0204
CUUGAAC | -0.781
UCGACAU | -0.497
CCCACCC | -0.337
GGAAGAG | 3.03
UGUGACA | -0.125
CGCUUAC | -0.788
AAUAAUC | -0.515
ACGGUGG | 2.73
GUAGGAC | 1.86
GACAUAA | -0.144
UUGUGUA | -0.504

Sequence | RNAcompete 7-mer binding Z-score
ACUACGA | -0.435
AUAGCAA | -0.0161
UACCCUA | -0.675
UGUUGAU | -0.566
AUUUAUA | -0.697
UCCACAU | -0.599
UUCAUCU | -0.653
UUGGCCA | -0.34
CAUAAAU | -0.551
CUGGCGA | -0.162
GCAUUAG | -0.0415
CUUGUGG | -0.344
ACCAACG | -0.267
GACAAGC | -0.0233
CAAAUAU | -0.621
UAUGGGA | 2.76
UAUACGG | 0.253
UGACUAG | -0.187
CCGCUAA | -0.712
GUUUGGA | 0.942
AGUGGAC | 1.44
CCUCUAA | -0.792
AGGAAUU | 0.585
UUCGAGA | -0.337

Sequence | RNAcompete 7-mer binding Z-score
CGAGAAC | -0.173
GCGAAGU | 0.603
CGUAUUC | -0.668
CUAACAA | -0.515
GAAUAGG | 3.18
AAUGGCA | 1.68
UUGCUCU | -0.912
UCGUAUU | -0.267
CUCGCCU | -0.825
UGACGGG | 2.14
CAUCGAG | -0.0889
ACUUUGU | -0.901
CCAUCAG | -0.628
UUACAAC | -0.449
UUUCCUU | -0.788
CAGGGAA | 3.07
AAAUAUU | -0.46
GACUCAC | -0.737
UAACCGU | -0.664
CCACUCU | -0.817
UUCCACC | -0.737
CGCAACC | -0.621
ACAUCCG | -0.613
GCUAGAU | -0.413

Sequence | RNAcompete 7-mer binding Z-score
AUCUCAC | -0.792
UACCUUA | -0.799
ACCCAAA | -0.694
GAGCUAA | -0.173
AAUUAUU | -0.632
UCUAUAU | -0.719
GUUGGGA | 3.05
AAUCGCG | -0.42
CUAAGGU | 0.111
CCGACGG | 0.428
UGAUCGG | 0.782
AGCAUCC | -0.595
GCUCAUA | -0.686
CGCUUGG | -0.508
ACGAUUA | -0.424
UCGUCAC | -0.398
GGUAUCG | 0.916
ACCUACC | -0.803
